A collection of fitness landscapes (doi:10.1126/science.1257360)
The other results are listed elsewhere or left out.

B1: PhoQ; a variant is named by its letters at X, in order, P23837 (parent)
chain: MKKLLRLFFPLSLRVRFLLATAAVVLVLSLAYGMVALIGYSVSFDKTTFRLLRGESNLFYTLAKWENNKLHVELPENIDKQSPTMTLIYDENGQLLWAQRDVPWLMKMIQPDWLKSNGFHEIEADVNDTSLLLSGDHSIQQQLQEVREDDDDAEMTHSVAVNVYPATSRMPKLTIVVVDTIPVELKSSYMVWSWFIYVLSANLLLVIPLLWVAAWWSLRPIEALAKEVRELEEHNRELLNPATTRELTSLVRNLNRLLKSERERYDKYRTTLTDLTHSLKTPLXXLQXXLRSLRSEKMSVSDAEPVMLEQISRISQQIGYYLHRASMRGGTLLSRELHPVAPLLDNLTSALNKVYQRKGVNISLDISPEISFVGEQNDFVEVMGNVLDNACKYCLEFVEISARQTDEHLYIVVEDDGPGIPLSKREVIFDRGQRVDTLRPGQGVGLAVAREITEQYEGKIVAGESMLGGARMEVIFGRQHSAPKDE

Variants of: B1
Assay: enrichment ratio after two sorts for PhoP signalling (ratio (wild type AVST 3.29)); higher = more functional
Conditions: with PhoP (E. coli)

Variant	enrichment ratio
MLFV	≤ 0.25
QTTQ	≤ 0.25
VYAK	≤ 0.25
WIFG	≤ 0.25
QLCG	≤ 0.25
AWNG	≤ 0.25
EMGG	≤ 0.25
IDIP	≤ 0.25
SWVR	≤ 0.25
WDVE	≤ 0.25
FHYE	≤ 0.25
QRIG	≤ 0.25
QTLV	≤ 0.25
SDQG	≤ 0.25
FWKL	≤ 0.25
QSIQ	≤ 0.25
WTEG	≤ 0.25
NPYR	≤ 0.25
LPYA	≤ 0.25
RPYP	≤ 0.25
DMSA	≤ 0.25
DHIH	≤ 0.25
STQL	17.1
SFYV	≤ 0.25
SFFP	≤ 0.25
KKRN	≤ 0.25

Variant	enrichment ratio
YMWR	≤ 0.25
IPQD	≤ 0.25
FTET	≤ 0.25
SCTK	7.2
RHVI	≤ 0.25
RYCN	≤ 0.25
YYTR	≤ 0.25
SIYE	0.315
RPSE	≤ 0.25
ENII	≤ 0.25
YSGD	≤ 0.25
AYVQ	≤ 0.25
AEGA	11
PYFY	≤ 0.25
HRPT	≤ 0.25
GHGF	≤ 0.25
RIMW	≤ 0.25
YSRE	≤ 0.25
VACV	≤ 0.25
PCEY	≤ 0.25
RLPD	≤ 0.25
KHWD	≤ 0.25
WSGS	≤ 0.25
PFCS	≤ 0.25
WPRQ	≤ 0.25
TRTE	≤ 0.25

Variant	enrichment ratio
SQFG	≤ 0.25
GDRF	≤ 0.25
IMPK	≤ 0.25
TDEI	≤ 0.25
FTHS	≤ 0.25
EYCC	≤ 0.25
ILKN	≤ 0.25
SQWA	≤ 0.25
TQES	≤ 0.25
NNIP	≤ 0.25
LIVE	≤ 0.25
DNWF	≤ 0.25
NNKT	≤ 0.25
NPGI	≤ 0.25
HAPP	≤ 0.25
QTMH	≤ 0.25
VTDY	≤ 0.25
WKCC	≤ 0.25
PYSD	≤ 0.25
YVMV	≤ 0.25
SRPI	≤ 0.25
RQAR	≤ 0.25
QFPM	≤ 0.25
GRLN	≤ 0.25
TFHV	≤ 0.25
PFMY	≤ 0.25

Variant	enrichment ratio
MGKF	≤ 0.25
FIFS	≤ 0.25
YPQY	≤ 0.25
WQDL	≤ 0.25
IWLN	≤ 0.25
RSVQ	≤ 0.25
SNHS	≤ 0.25
RFTL	≤ 0.25
PATF	≤ 0.25
VGHM	≤ 0.25
TKMD	0.263
CLVI	≤ 0.25
TRRL	≤ 0.25
VLHL	≤ 0.25
TIEW	≤ 0.25
YNDQ	≤ 0.25
PRTA	≤ 0.25
NKQI	≤ 0.25
PNQD	≤ 0.25
IIPM	≤ 0.25
YWKT	≤ 0.25
MRGS	≤ 0.25
VLHM	≤ 0.25
KHDE	≤ 0.25
ELVM	≤ 0.25
KGWA	≤ 0.25

Variant	enrichment ratio
KGCR	≤ 0.25
RQIE	≤ 0.25
TVGD	≤ 0.25
DEHQ	≤ 0.25
YGVN	0.446
MKCF	≤ 0.25
QLLS	≤ 0.25
RWTS	≤ 0.25
VLCA	≤ 0.25
REMP	≤ 0.25
ECLQ	≤ 0.25
QNPD	≤ 0.25
LDVW	≤ 0.25
DWLV	≤ 0.25
FSAV	0.409
PVWA	≤ 0.25
KVFI	≤ 0.25
VEMS	7.83
WYAL	≤ 0.25
SEAE	5.82
PHKD	≤ 0.25
QMSW	≤ 0.25
VISA	≤ 0.25
FFFL	≤ 0.25
YPPV	≤ 0.25
FEDN	≤ 0.25

Variant	enrichment ratio
HYKG	≤ 0.25
RVND	≤ 0.25
YDVT	≤ 0.25
DESP	≤ 0.25
DLSH	≤ 0.25
YGHV	4.1
IWTF	≤ 0.25
DPFD	≤ 0.25
QCSE	≤ 0.25
RMAM	≤ 0.25
RIYA	≤ 0.25
SLGL	7.57
SLIW	≤ 0.25
MHMR	≤ 0.25
THWM	≤ 0.25
MCSK	≤ 0.25
YQGE	≤ 0.25
KDYS	≤ 0.25
IYCD	≤ 0.25
EYDG	≤ 0.25
PGIV	≤ 0.25
AWMQ	≤ 0.25
YIFL	≤ 0.25
